Test results: the supplement of paper PMC12217912
The other results are listed elsewhere or left out. The full chains were built here from the parent and the listed change. Inactive controls read about 0.05.

B1: TEV protease; numbered along this chain (parent)
chain: MGESLFKGPRDYNPISSSICHLTNESDGHTTSLYGIGFGPFIITNKHLFRRNNGTLVVQSLHGVFKVKDTTTLQQHLVDGRDMIIIRMPKDFPPFPQKLKFREPQREERICLVTTNFQTKSMSSMVSDTSCTFPSGDGIFWKHWIQTKDGQCGSPLVSTRDGFIVGIHSASNFTNTNNYFTSVPKNFMELLTNQEAQQWVSGWRLNADSVLWGGHKVFMVKPEEPFQPVKEATQL

Variants of: B1
Assay: raw area under fraction-flipped curve 0-4 h after induction (AUC4h, not background-subtracted), DNA-recorder readout of cleavage of the substrate (dimensionless); higher = more cleavage of the substrate by the protease variant
Settings: temperature: 34 °C; time window: 0-4 h after rhamnose induction
Description: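 In vivo DNA recorder in E. coli TOP10(DE3) ΔrhaA at 34 °C. Each TEVp single-site mutant (parent TEVp 0) is paired with a single-site variant of the 7-mer TEVs (canonical ENLYFQ|S). The substrate sits between flexible linkers in a Bxb1-sfGFP-TEVs-SsrA fusion, so cleavage stabilises Bxb1 and speeds flipping of a recombination array, read by NGS. The value is the raw area under the fraction-flipped curve over 0-4 h after rhamnose induction (AUC4h), with ≥20 reads per time point. It is not background-subtracted; inactive controls average about 0.047.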
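Further: Bxb1 expression induced with 0.2% (w/v) L-rhamnose at OD600 near 0.5, cultures sampled hourly, flipped fraction per protease–substrate barcode pair counted by paired-end Illumina sequencing.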

MGESLFKGPRDYNPISSSICHLTNESDGHTTSLYGIGFGPFIITNKHLFRRNNGTLVVQSLHGVFKVKDTTTLQQHLVDGRDMIIIRMPKDFPPFPQKLKFREPQREKRICLVTTNFQTKSMSSMVSDTSCTFPSGDGIFWKHWIQTKDGQCGSPLVSTRDGFIVGIHSASNFTNTNNYFTSVPKNFMELLTNQEAQQWVSGWRLNADSVLWGGHKVFMVKPEEPFQPVKEATQL [E108K]
area with substrate ENAYFQS: 0.0604 | area with substrate ENEYFQS: 0.0515 | area with substrate ENFYFQS: 0.0609 | area with substrate ENGYFQS: 0.0588 | area with substrate ENHYFQS: 0.045 | area with substrate ENMYFQS: 0.0456 | area with substrate ENNYFQS: 0.055 | area with substrate ENQYFQS: 0.0577 | area with substrate ENSYFQS: 0.0547 | area with substrate ENVYFQS: 0.0424

MGESLFKGPRDYNPISSSICHLTNESDGHTTSLYGIGFGPFIITNKHLFRRNNGTLVVQSLHGVFKVKDTTTLQQHLVDGRDMIIIRMPKDFPPFPQKLKFREPQREWRICLVTTNFQTKSMSSMVSDTSCTFPSGDGIFWKHWIQTKDGQCGSPLVSTRDGFIVGIHSASNFTNTNNYFTSVPKNFMELLTNQEAQQWVSGWRLNADSVLWGGHKVFMVKPEEPFQPVKEATQL [E108W]
area with substrate ENAYFQS: 0.0519 | area with substrate ENCYFQS: 0.0581 | area with substrate ENDYFQS: 0.0619 | area with substrate ENEYFQS: 0.0534 | area with substrate ENFYFQS: 0.0602 | area with substrate ENGYFQS: 0.0573 | area with substrate ENIYFQS: 0.0522 | area with substrate ENKYFQS: 0.05 | area with substrate ENMYFQS: 0.0538 | area with substrate ENNYFQS: 0.0606 | area with substrate ENPYFQS: 0.0424 | area with substrate ENQYFQS: 0.0293 | area with substrate ENRYFQS: 0.0515 | area with substrate ENSYFQS: 0.0564 | area with substrate ENTYFQS: 0.0518 | area with substrate ENVYFQS: 0.0494 | area with substrate ENWYFQS: 0.0593 | area with substrate ENYYFQS: 0.07

MGESLFKGPRDYNPISSSICHLTNESDGHTTSLYGIGFGPFIITNKHLFRRNNGTLVVQSLHGVFKVKDTTTLQQHLVDGRDMIIIRMPKDFPPFPQKLKFREPQRERRICLVTTNFQTKSMSSMVSDTSCTFPSGDGIFWKHWIQTKDGQCGSPLVSTRDGFIVGIHSASNFTNTNNYFTSVPKNFMELLTNQEAQQWVSGWRLNADSVLWGGHKVFMVKPEEPFQPVKEATQL [E108R]
area with substrate ENAYFQS: 0.0496 | area with substrate ENCYFQS: 0.0495 | area with substrate ENDYFQS: 0.0584 | area with substrate ENFYFQS: 0.0549 | area with substrate ENHYFQS: 0.0438 | area with substrate ENIYFQS: 0.0626 | area with substrate ENKYFQS: 0.06 | area with substrate ENNYFQS: 0.043 | area with substrate ENQYFQS: 0.0573 | area with substrate ENRYFQS: 0.0489 | area with substrate ENSYFQS: 0.0533 | area with substrate ENTYFQS: 0.0456 | area with substrate ENVYFQS: 0.0583

MGESLFKGPRDYNPISSSICHLTNESDGHTTSLYGIGFGPFIITNKHLFRRNNGTLVVQSLHGVFKVKDTTTLQQHLVDGRDMIIIRMPKDFPPFPQKLKFREPQRDERICLVTTNFQTKSMSSMVSDTSCTFPSGDGIFWKHWIQTKDGQCGSPLVSTRDGFIVGIHSASNFTNTNNYFTSVPKNFMELLTNQEAQQWVSGWRLNADSVLWGGHKVFMVKPEEPFQPVKEATQL [E107D]
area with substrate ENAYFQS: 0.0613 | area with substrate ENDYFQS: 0.067 | area with substrate ENEYFQS: 0.0349 | area with substrate ENFYFQS: 0.0589 | area with substrate ENGYFQS: 0.0552 | area with substrate ENHYFQS: 0.0684 | area with substrate ENIYFQS: 0.13 | area with substrate ENNYFQS: 0.0692 | area with substrate ENQYFQS: 0.0596 | area with substrate ENSYFQS: 0.0669 | area with substrate ENVYFQS: 0.0824 | area with substrate ENYYFQS: 0.0789

MGESLFKGPRDYNPISSSICHLTNESDGHTTSLYGIGFGPFIITNKHLFRRNNGTLVVQSLHGVFKVKDTTTLQQHLVDGRDMIIIRMPKDFPPFPQKLKFREPQRTERICLVTTNFQTKSMSSMVSDTSCTFPSGDGIFWKHWIQTKDGQCGSPLVSTRDGFIVGIHSASNFTNTNNYFTSVPKNFMELLTNQEAQQWVSGWRLNADSVLWGGHKVFMVKPEEPFQPVKEATQL [E107T]
area with substrate ENAYFQS: 0.0693 | area with substrate ENCYFQS: 0.0765 | area with substrate ENEYFQS: 0.0458 | area with substrate ENQYFQS: 0.0583 | area with substrate ENSYFQS: 0.0526 | area with substrate ENTYFQS: 0.0479

MGESLFKGPRDYNPISSSICHLTNESDGHTTSLYGIGFGPFIITNKHLFRRNNGTLVVQSLHGVFKVKDTTTLQQHLVDGRDMIIIRMPKDFPPFPQKLKFREPQRVERICLVTTNFQTKSMSSMVSDTSCTFPSGDGIFWKHWIQTKDGQCGSPLVSTRDGFIVGIHSASNFTNTNNYFTSVPKNFMELLTNQEAQQWVSGWRLNADSVLWGGHKVFMVKPEEPFQPVKEATQL [E107V]
area with substrate ENAYFQS: 0.0565 | area with substrate ENCYFQS: 0.0735 | area with substrate ENDYFQS: 0.0684 | area with substrate ENEYFQS: 0.0669 | area with substrate ENGYFQS: 0.0386 | area with substrate ENIYFQS: 0.105 | area with substrate ENNYFQS: 0.0572 | area with substrate ENPYFQS: 0.063 | area with substrate ENQYFQS: 0.0567 | area with substrate ENSYFQS: 0.0645 | area with substrate ENTYFQS: 0.0561 | area with substrate ENVYFQS: 0.0819 | area with substrate ENWYFQS: 0.0513 | area with substrate ENYYFQS: 0.0669

MGESLFKGPRDYNPISSSICHLTNESDGHTTSLYGIGFGPFIITNKHLFRRNNGTLVVQSLHGVFKVKDTTTLQQHLVDGRDMIIIRMPKDFPPFPQKLKFREPQRQERICLVTTNFQTKSMSSMVSDTSCTFPSGDGIFWKHWIQTKDGQCGSPLVSTRDGFIVGIHSASNFTNTNNYFTSVPKNFMELLTNQEAQQWVSGWRLNADSVLWGGHKVFMVKPEEPFQPVKEATQL [E107Q]
area with substrate ENAYFQS: 0.0563 | area with substrate ENDYFQS: 0.0606 | area with substrate ENEYFQS: 0.0523 | area with substrate ENFYFQS: 0.0666 | area with substrate ENGYFQS: 0.0691 | area with substrate ENHYFQS: 0.0579 | area with substrate ENIYFQS: 0.0906 | area with substrate ENPYFQS: 0.0607 | area with substrate ENQYFQS: 0.0576 | area with substrate ENSYFQS: 0.0781 | area with substrate ENTYFQS: 0.0574 | area with substrate ENVYFQS: 0.0789

MGESLFKGPRDYNPISSSICHLTNESDGHTTSLYGIGFGPFIITNKHLFRRNNGTLVVQSLHGVFKVKDTTTLQQHLVDGRDMIIIRMPKDFPPFPQKLKFREPQREEAICLVTTNFQTKSMSSMVSDTSCTFPSGDGIFWKHWIQTKDGQCGSPLVSTRDGFIVGIHSASNFTNTNNYFTSVPKNFMELLTNQEAQQWVSGWRLNADSVLWGGHKVFMVKPEEPFQPVKEATQL [R109A]
area with substrate ENAYFQS: 0.0648 | area with substrate ENDYFQS: 0.053 | area with substrate ENHYFQS: 0.0311 | area with substrate ENPYFQS: 0.0674 | area with substrate ENQYFQS: 0.0713 | area with substrate ENRYFQS: 0.0654 | area with substrate ENSYFQS: 0.074

MGESLFKGPRDYNPISSSICHLTNESDGHTTSLYGIGFGPFIITNKHLFRRNNGTLVVQSLHGVFKVKDTTTLQQHLVDGRDMIIIRMPKDFPPFPQKLKFREPQREESICLVTTNFQTKSMSSMVSDTSCTFPSGDGIFWKHWIQTKDGQCGSPLVSTRDGFIVGIHSASNFTNTNNYFTSVPKNFMELLTNQEAQQWVSGWRLNADSVLWGGHKVFMVKPEEPFQPVKEATQL [R109S]
area with substrate ENAYFQS: 0.0461 | area with substrate ENCYFQS: 0.0625 | area with substrate ENDYFQS: 0.0647 | area with substrate ENFYFQS: 0.0468 | area with substrate ENGYFQS: 0.062 | area with substrate ENKYFQS: 0.0651 | area with substrate ENNYFQS: 0.0722 | area with substrate ENPYFQS: 0.0301 | area with substrate ENQYFQS: 0.0534 | area with substrate ENRYFQS: 0.0487 | area with substrate ENTYFQS: 0.0616 | area with substrate ENVYFQS: 0.0761 | area with substrate ENWYFQS: 0.0436 | area with substrate ENYYFQS: 0.0607

MGESLFKGPRDYNPISSSICHLTNESDGHTTSLYGIGFGPFIITNKHLFRRNNGTLVVQSLHGVFKVKDTTTLQQHLVDGRDMIIIRMPKDFPPFPQKLKFREPQREENICLVTTNFQTKSMSSMVSDTSCTFPSGDGIFWKHWIQTKDGQCGSPLVSTRDGFIVGIHSASNFTNTNNYFTSVPKNFMELLTNQEAQQWVSGWRLNADSVLWGGHKVFMVKPEEPFQPVKEATQL [R109N]
area with substrate ENAYFQS: 0.0642 | area with substrate ENCYFQS: 0.0648 | area with substrate ENDYFQS: 0.0581 | area with substrate ENEYFQS: 0.0546 | area with substrate ENMYFQS: 0.0818 | area with substrate ENQYFQS: 0.0914 | area with substrate ENTYFQS: 0.056 | area with substrate ENYYFQS: 0.0706
